According to PubChem BioAssay AID1963576 (National Center for Advancing Translational Sciences (NCATS), 2024):
In all, about 46,000 compounds went through this assay and about 60 (0.1%) were called active. Inconclusive results (about 3%) are left out. Calls follow the shape of the dose curve; as a rule, active = well fitted inhibition curve with a large enough effect; inconclusive = small, poorly fitted or top-dose-only effect; inactive = no such curve, though single readings can be large or run the other way. This is one part of the list.

experiment: Primary qHTS assay for Inhibitors of ovarian cancer metastasis using an organotypic tumor microenvironment (TME) model.; also: nearly all actives have a fitted effect of over 65% in size;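 as to activity change, negative = inhibition: plate controls were DMSO wells for no effect and tomatine positive control wells for full effect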; conditions: SKOV3ip1-GFP adhesion/invasion on 3D omental model, fluorescence; series mostly up to 45.8 µM; activity change, negative = inhibition: at the top concentration
Method in brief: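 qHTS, 4-pt dose (0.36-46 umol/L); SKOV3ip1-GFP, 1,200 cells/well, no FBS; primary omental fibroblast/mesothelial co-culture 48 h pre-grown; 2 h RT + 16 h 37 C; PBS wash, 4% PFA; GFP count 488/509 nm.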

outcome, inactive:
CC(=O)c1cccc(NC(=O)CN2C(=O)c3ccccc3Sc3ncccc32)c1, O=C(c1cnn(-c2cccc(F)c2)c1-n1cccc1)N1CCN(c2ccccc2F)CC1, Cc1c(C)n(Cc2ccccc2)c2ccc(C(=O)NCc3ccccc3F)cc12, COc1ccc(C(=O)Nc2cccc(-c3cn4ccsc4n3)c2)cc1OC, CCOC(=O)C1CCN(C(=O)Cn2nc(C)n3c(cc4sccc43)c2=O)CC1, CC1=C(C(=O)NCc2ccccc2Cl)C2(CCCCCC2)OC1=O, COc1ccc(NC(=O)/C=C\C(=O)N(c2ccc(C(C)C)cc2)C(C(=O)NCc2ccco2)c2ccc(C)cc2)cc1 (configuration not stated), CCOc1ccc(C2C(=O)N(C3CCCCCC3)CC(=O)N2Cc2ccccc2)cc1OC (configuration not stated), CCOC(=O)c1cccc(NC(=O)c2ncoc2-c2ccco2)c1, Cc1ccc(NC(=O)C2(C)Cc3ccccc3C(=O)O2)c(C)c1 (configuration not stated), COc1ccc(CCNC(=O)c2ccc3c(c2)sc2nc(-c4ccccc4)cn23)cc1OC, Cc1cc(C)c(S(=O)(=O)NCCS(=O)(=O)N2CCN(c3ccccc3)CC2)c(C)c1, COc1cccc(NC(=O)C2CCN(c3ccc(Sc4ccc(C)cc4)nn3)CC2)c1, CCc1ccc2oc(-c3ccc(C)c(NC(=O)/C=C/c4ccco4)c3)nc2c1, COc1ccc(-c2cc(-c3ccc(C)cc3)nc3c2COc2ccccc2-3)cc1, Cc1nc(-c2ccc(S(=O)(=O)Nc3cc(Cl)ccc3C)cc2)co1, COc1ccc(CCNC(=O)c2ccc3c(c2)CCN3S(C)(=O)=O)cc1OC, CCC(Sc1nc2c(sc3ccccc32)c(=O)n1CCc1ccc(OC)c(OC)c1)C(=O)N(CC)CC (configuration not stated)

Activity change, negative = inhibition, inactive:
COc1ccccc1NC(=O)NCCCN1CCN(c2ccc(F)cc2)CC1 0.615%, CCCN1CCN(CCCNC(=O)c2ccc3c(c2)sc2nc(-c4ccc(OC)cc4)cn23)CC1 -14.6%, Cn1c(SCC(=O)N2CCOCC2)ncc(C(=O)Nc2ccccc2)c1=O -12.6%, Cc1ccccc1Cn1c(CN2CCC(C(=O)NCc3cccnc3)CC2)cc2ccccc21 0.646%, O=C(NC[C@H](O)CO)c1ccncc1Nc1ccc(I)cc1F 17.5%, Cc1ccc2c(CNCC(C)c3ccccc3)c(C(=O)O)n(Cc3ccccc3C)c2c1 (configuration not stated) 1.82%, O=C(O)c1ccc2cc(-c3ccc(O)c(C45CC6CC(CC(C6)C4)C5)c3)ccc2c1 5.46%, Cc1nc2ccccn2c(=O)c1NC(=O)c1cccc(F)c1 -10.1%, COC(=O)c1ccccc1NC(=O)Cn1cnc2sc(C)c(S(=O)(=O)N3CCC(C)CC3)c2c1=O -5.59%, COc1cccc(Nc2nc3cc(C)ccc3nc2NS(=O)(=O)c2ccc(Cl)cc2)c1 16.7%, Cc1ccc(CNC(=O)Cn2c(SCC(=O)Nc3ccc(F)cc3)nc3ccccc32)cc1 -31%, Cc1cc(OCC(=O)NCCc2nc3ccccc3[nH]2)cc(C)c1Cl -3.96%, COc1cccc(C(=O)NCCc2csc3nc(-c4ccccc4F)nn23)c1OC 5.92%, CCOC(=O)c1cc(-c2ccc(OC)cc2)n(CCC(=O)NCCc2ccccc2)c1C 2.06%, Cc1ccccc1N(C)S(=O)(=O)c1nnc(NC(=O)c2ccco2)s1 0.255%, O=S(=O)(c1ccccc1)c1nc(-c2ccccc2Cl)oc1N1CCCCCC1 -6.89%, Cc1ccc(CNC(=O)C(C)n2c(=O)cc(C(F)(F)F)c3c(C)nn(C)c32)cc1 (configuration not stated) -4.1%, CCn1nc(C)c(CCN(C)C(=O)Nc2cccc(Cl)c2C)c1C 1.91%, Cc1cccc(C(=O)N2CCc3cc(CNC(=O)c4cc5ccccc5[nH]4)ccc32)c1 4.41%, Cc1ccc(S(=O)(=O)C(CNC(=O)c2c(F)cccc2F)c2ccco2)cc1 (configuration not stated) -3.89%, O=C(NCc1ccccc1)C(=O)Nc1c2c(nn1-c1ccc(F)cc1)CSC2 2.98%, COc1ccc(NC(=O)CN2C(=O)COc3ccc(S(=O)(=O)N4CCOCC4)cc32)cc1 -7.68%, COc1cccc(NC(=O)C2CCC(CNS(=O)(=O)c3ccc4c(c3)CCCC(=O)N4)CC2)c1 (configuration not stated) 25.4%, CCn1cc(CNC(=O)c2cc(-c3ccc(C)cc3)nc3ccc(Br)cc23)c(C)n1 3.31%, Cc1ccccc1-c1nc2scc(CCNC(=O)c3ccco3)n2n1 -2.17%, CCS(=O)(=O)N1CCc2cc(C(=O)NCc3ccccc3OC)ccc21 -4.06%, CCOc1ccc(CCNC(=O)C2CCCN(S(=O)(=O)N(C)c3ccc(F)cc3)C2)cc1 (configuration not stated) 9.33%, Cc1sc2ncn(CC(=O)N3CCN(c4ccccc4F)CC3)c(=O)c2c1S(=O)(=O)N1CCC(C)CC1 2.27%, Cc1ccc2nc(/C(C#N)=C/c3ccccc3F)[nH]c2c1 3.46%, Cc1cccc(OCCSc2nnc(-c3cccs3)o2)c1 8.11%, Clc1ccccc1OCCSc1nnc(-c2cccs2)o1 -8.11%, O=C(CSc1nc(=O)n(Cc2ccco2)c2c1CCC2)NCc1ccccc1 -5.76%, COc1ccccc1CNC(=O)C1CCN(c2nc3ccc(C)cc3[nH]2)CC1 -5.59%, O=C(NC1CCCC1)c1ccc2c(=O)n(Cc3ccccc3)c(SCc3ccccc3F)nc2c1 -6.77%, COc1ccc(Cl)cc1-n1cc(-c2ccccc2)nc1SCC(=O)Nc1ccc(C)cc1 1.76%, Cc1ccc(S(=O)(=O)c2nc(-c3ccc(F)cc3)oc2SCC(=O)NC2CCCCC2)cc1 -2.69%, C[C@]12CCC(=O)C=C1CC[C@@H]1[C@H]2[C@@H](O)C[C@@]2(C)[C@H]1CC[C@]2(O)C(=O)CO 33.6%, CCC(Cn1nnc2ccccc2c1=O)NC(=O)Nc1ccccc1OC (configuration not stated) -5.74%, CCc1ccc(CNC(=O)CCCn2ccc3cc(S(=O)(=O)N4CCCC4)ccc32)cc1 6.66%, CCOc1ccc(CCNC(=O)c2cc3c(-c4ccccc4F)nn(C)c3s2)cc1 -0.922%, COc1ccc(Cn2cc(S(=O)(=O)c3ccc(C)cc3)c(=O)c3cc(F)ccc32)cc1 -4.55%, COc1ccc2c(c1)c(=O)c(C(=O)c1ccccc1)cn2CC(=O)Nc1ccc2c(c1)OCO2 2.77%, COc1ccc2c(CNCCc3ccc(SC)cc3)c(C(=O)O)n(Cc3ccc(F)cc3)c2c1 -14.5%, CCC(CC)C(=O)Nc1nnc(S(=O)(=O)N2CCCCCC2)s1 9.82%
